Experimental data: the supplement of paper PMC6135742
“And” between values parts separate entries of the source, which are not always exact repeats. Equal values may be shown once. Where a name gives a salt, the structure may show the parent alone. ± gives the standard deviation of the averaged measurements. Over roughly 2,600 compounds, “total cell number (DAPI+ nuclei) relative to DMSO vehicle control” has its median near -1.4; the lowest 2% begin near -23. The list shows a part of the results.

The molecules below were run on jimpy (Plp1 jimpy) mouse iPSC-derived oligodendrocyte progenitor cells (assay: total cell number (DAPI+ nuclei) relative to DMSO vehicle control (SDs above negative control mean); higher = more surviving cells). Settings: 10 µM; 3 days.

SMILES	total cell number
CC[C@@H]([C@H](C)O)n1ncn(-c2ccc(N3CCN(c4ccc(OC[C@@H]5CO[C@@](Cn6cncn6)(c6ccc(F)cc6F)C5)cc4)CC3)cc2)c1=O [Posaconazole]	-17.4
CN(CC[C@@H](Oc1ccc(C(F)(F)F)cc1)c1ccccc1)CC(=O)[O-].[Li+]	-1.97
O=C(O)c1ccccc1 [Benzoic Acid]	-0.639
CCN1CCC[C@H]1CNC(=O)c1c(O)c(Cl)cc(Cl)c1OC [S(+)-Raclopride L-tartrate]	-1.61
CCN(CCCOc1ccc2c(Nc3cc(CC(=O)Nc4cccc(F)c4)[nH]n3)ncnc2c1)CCOP(=O)(O)O [Barasertib (AZD1152-HQPA)]	-10.7
CC/C(=C(\c1ccccc1)c1ccc(OCCN(C)C)cc1)c1ccccc1 [Tamoxifen Citrate]	-16.5
CC/C(=C(\c1ccccc1)c1ccc(OCCN(C)C)cc1)c1ccccc1 [Tamoxifen]	-9.77
CC/C(=C(\c1ccccc1)c1ccc(OCCN(C)C)cc1)c1ccccc1 [Tamoxifen citrate]	-5.75
CCc1oc2ccccc2c1C(=O)c1cc(Br)c(O)c(Br)c1 [Benzbromarone]	1.16
CN(C)CCCCC(=O)Nc1ccc(NC(=S)NC(=O)c2ccc(C(C)(C)C)cc2)cc1 [Tenovin-6]	-15.7
C=C(c1ccc(C(=O)O)cc1)c1cc2c(cc1C)C(C)(C)CCC2(C)C [Bexarotene]	-0.481 ± 1.5
CC[N+](CC)(CC)CCOc1cccc(OCC[N+](CC)(CC)CC)c1OCC[N+](CC)(CC)CC [Gallamine Triethiodide]	-1.13
CC[N+](CC)(CC)CCOc1cccc(OCC[N+](CC)(CC)CC)c1OCC[N+](CC)(CC)CC [Gallamine triethiodide]	-1.79
CCOC(=O)[N-]c1c[n+](N2CCOCC2)no1 [Molsidomine]	0.602
CC(C)(C)NCC(O)c1cc(O)cc(O)c1 (configuration not stated) [Terbutaline hemisulfate]	-0.695
O=C(O)CCCCC1CCSS1 (racemic) [(±)-alpha-Lipoic Acid]	-1.32
N[C@H](C(=O)O)[C@H]1C[C@@H]1C(=O)O [(2S,1'S,2'S)-2-(carboxycyclopropyl)glycine]	-0.886
O=C(c1cncc(Br)c1)N1CCC(N2CCCC2)CC1	2.68
Cc1cnc(C(=O)O)c[n+]1[O-] [Acipimox]	-3.37
O=c1c(O)c(-c2ccc(O)c(O)c2)oc2cc(O)cc(O)c12 [Quercetin]	-5.44
O=c1c(O)c(-c2ccc(O)c(O)c2)oc2cc(O)cc(O)c12 [Quercetin Dihydrate]	-2.8

SMILES	total cell number
O=c1c(O)c(-c2ccc(O)c(O)c2)oc2cc(O)cc(O)c12 [Quercetin dihydrate]	-4.04
COC(=O)C(N)Cc1ccc(Cl)cc1 (racemic) [DL-p-Chlorophenylalanine methyl ester hydrochloride]	-3.35
O=C(O)C1(C(=O)O)CCC1.[NH2-].[NH2-].[Pt+2] [Carboplatin]	-4.56 ± 1.4
CC(C)Cc1ccc(C(C)C(=O)O)cc1 (configuration not stated) [Ibuprofen]	1.28
COc1ccc(CN2CCN(C(c3ccc(F)cc3)c3ccc(F)cc3)CC2)c(OC)c1OC [Lomerizine HCl]	-14.2
COCCc1ccc(OCC(O)CNC(C)C)cc1 (configuration not stated) [Metoprolol Tartrate]	-2.15
CCN1CCN(Cc2ccc(Nc3ncc(F)c(-c4cc(F)c5nc(C)n(C(C)C)c5c4)n3)nc2)CC1	-15.3
NCCCS(=O)(=O)O [3-Amino-1-propanesulfonic acid sodium]	-3.56
Cc1[nH]nc2ccc(-c3cncc(OC[C@@H](N)Cc4ccccc4)c3)cc12	-10.4
CC(C)[C@H](O)C(=O)N[C@@H](C)C(=O)N[C@@H]1C(=O)N(C)CCc2ccccc21	-6.62
Nc1ccc(/N=N/c2ccccc2)c(N)n1 [Phenazopyridine HCl]	-6.07
NS(=O)(=O)c1nn2cc(-c3ccccc3)nc2s1	-5.78
CCC(=O)O[C@]1(C(=O)SCF)[C@H](C)C[C@H]2[C@@H]3C[C@H](F)C4=CC(=O)C=C[C@]4(C)[C@@]3(F)[C@@H](O)C[C@@]21C [Fluticasone propionate]	5.81
O=C(O)Cn1nnc(-c2cc(N3CCC(Oc4cc(F)ccc4Br)CC3)no2)n1	3.6
O=C(O)c1ccccc1Nc1cccc(C(F)(F)F)c1 [Flufenamic acid]	1.42
c1ccc(-c2nn3c(c2-c2ccnc4cc(OCCN5CCOCC5)ccc24)CCC3)nc1	-4.67
Cc1cccc(C)c1OCC(=O)N[C@@H](Cc1ccccc1)[C@@H](O)C[C@H](Cc1ccccc1)NC(=O)[C@H](C(C)C)N1CCCNC1=O [Lopinavir]	-3.63
O=C1O[C@H]([C@@H](O)CO)C(O)=C1O [Vitamin C]	-1.24
Clc1ccc(C(c2ccccc2Cl)C(Cl)Cl)cc1 (configuration not stated) [Mitotane]	-1.65
CNCc1ccc(C)c(NC(=O)c2ccc(Nc3nc(-c4ccccc4)c4ccccc4n3)cc2)c1	-15
COc1cc(CCc2cc(NC(=O)c3ccc(N4CC(C)NC(C)C4)cc3)n[nH]2)cc(OC)c1 (configuration not stated)	-10.9

SMILES	total cell number
O=C1Nc2ccc(Cl)cc2[C@@](C#CC2CC2)(C(F)(F)F)O1 [Efavirenz]	0
Nc1ccc(C(=O)O)c(O)c1 [Sodium 4-Aminosalicylate]	-2.66
CCC(C)(C)C(=O)O[C@H]1C[C@@H](C)C=C2C=C[C@H](C)[C@H](CC[C@@H]3C[C@@H](O)CC(=O)O3)[C@H]21 [Simvastatin]	-17.6
COc1cccc(OC)c1OCCNCC1CSc2ccccc2O1 (configuration not stated) [Benoxathian hydrochloride]	-0.65
O=C(CSc1nc2c(c(=O)n1-c1ccccc1)SCC2)Nc1ccc(-c2ccccc2)cn1	1.03
CC(=O)Oc1ccc(C(c2ccc(OC(C)=O)cc2)c2ccccn2)cc1 [Bisacodyl]	2.35
CCOC(=O)CC(=O)N1CCSC1COc1ccccc1OC (configuration not stated) [Moguisteine]	-1.39
N#CC[C@H](C1CCCC1)n1cc(-c2ncnc3[nH]ccc23)cn1	-2.44
COc1cc(CNC(=O)CCCCCCC(C)C)ccc1O [Dihydrocapsaicin]	-4.48
CN(C[C@@H]1COCCO1)S(=O)(=O)Nc1ccc2ccc3ncc(-c4cnn(C)c4)cc3c(=O)c2c1	-9.05
CCCc1nn(C)c2c(=O)[nH]c(-c3cc(S(=O)(=O)N4CCN(C)CC4)ccc3OCC)nc12 [Sildenafil citrate salt]	-1.42
CCCc1nn(C)c2c(=O)[nH]c(-c3cc(S(=O)(=O)N4CCN(C)CC4)ccc3OCC)nc12 [Sildenafil Citrate]	-0.987
OC[C@H]1NC[C@@H](O)[C@@H]1O [1,4-Dideoxy-1,4-imino-D-arabinitol]	-0.282
Cc1c(C(=O)N2CCOc3ccc(-c4ccc(N)nc4)cc3C2)ccc(S(C)(=O)=O)c1F	-3.21
CC(C)(O)CC(=O)NCCn1ccc2ncnc(Nc3ccc(Oc4cccc(C(F)(F)F)c4)c(Cl)c3)c21	-0.607
CCC1(C)CC(=O)NC1=O (configuration not stated) [Ethosuximide]	-0.463
C[C@H](Nc1ncnc2nc[nH]c12)c1cc2cccc(Cl)c2c(=O)n1-c1ccccc1	-10.8
CC(NCCc1ccc(O)cc1)C(O)c1ccc(O)cc1 (configuration not stated) [Ritodrine hydrochloride]	0.863
CC(NCCc1ccc(O)cc1)C(O)c1ccc(O)cc1 (configuration not stated) [Ritodrine HCl]	-1.07
Cc1nc2c([nH]1)c(=O)n(C)c(=O)n2Cc1ccco1 [Furafylline]	-0.322
NC1CONC1=O (racemic) [DL-Cycloserine]	-1.2

SMILES	total cell number
CN(C)CCCc1cc(C(=O)Nc2ccc(-c3ccncc3)cc2)ccc1O	-2.7
CC(C)c1cnn2c(NCc3ccccc3)cc(NCCCCCCN)nc12	-17.6
COc1cc2nc(N3CCCN(C)CC3)nc(NC3CCN(Cc4ccccc4)CC3)c2cc1OC	-10.1 and -15.2
O=S(=O)(c1cccc2cnccc12)N1CCCNCC1 [Fasudil (HA-1077) HCl]	-0.616
Cc1nc2sccn2c(=O)c1CCN1CCC(=C(c2ccc(F)cc2)c2ccc(F)cc2)CC1 [Ritanserin]	-0.524
CCOC(=O)C1=C(C)NC(C)=C(C(=O)OC)C1c1cccc(Cl)c1Cl (configuration not stated) [Felodipine]	0.634 ± 0.76
O=C1c2c(O)ccc(O)c2C(=O)c2c(NCCNCCO)ccc(NCCNCCO)c21 [Mitoxantrone HCl]	38.3
O=C1c2c(O)ccc(O)c2C(=O)c2c(NCCNCCO)ccc(NCCNCCO)c21 [Mitoxantrone]	16.1
CCOC(=O)c1ccc(NC2CCCCC2)c(N)c1 [Ferrostatin-1]	-4.14
CCOC(=O)c1ccc(NC2CCCCC2)c(N)c1 [Ferrostatin-1 (Fer-1)]	-2.44
O=C(NC(Cc1cc(=O)[nH]c2ccccc12)C(=O)O)c1ccc(Cl)cc1 (configuration not stated) [Rebamipide]	-1.29
CCN1C(=O)C=CC1=O [N-Ethylmaleimide]	-0.302
COC(=O)/C=C/C(=O)OC [Dimethyl Fumarate]	-1.31
O=C(NNc1nc2cc(F)ccc2n2cccc12)c1cnccn1	-16.2
CC(C)c1cc(C(C)C)c(CC(=O)NS(=O)(=O)Oc2c(C(C)C)cccc2C(C)C)c(C(C)C)c1 [Avasimibe]	-3.06
C[N+](C)(C)CCOC(N)=O [Carbachol]	-1.57
CN(c1ncccc1CNc1nc(Nc2ccc3c(c2)CC(=O)N3)ncc1C(F)(F)F)S(C)(=O)=O	-8.32 and -9.54 and -12.3
Cn1nc(C(C)(C)C)cc1C(=O)N[C@@H](Cc1cccc(Cl)c1)C(=O)NCC#N [Cathepsin Inhibitor 1]	-0.558
CN(C)CCc1c[nH]c2ccc(CS(=O)(=O)N3CCCC3)cc12 [Almotriptan Malate]	1.71
